About 2,200 (0.71%) of roughly 310,000 compounds showed an effect of 50% or more. The effect is printed as a negative number. The list shows a part of the results.
target: human ether-à-go-go-related gene (hERG) potassium channel (human, UniProt Q12809); test: primary screen, population patch clamp on CHO cells stably expressing hERG
Sequence (Q12809 whole entry, looked up): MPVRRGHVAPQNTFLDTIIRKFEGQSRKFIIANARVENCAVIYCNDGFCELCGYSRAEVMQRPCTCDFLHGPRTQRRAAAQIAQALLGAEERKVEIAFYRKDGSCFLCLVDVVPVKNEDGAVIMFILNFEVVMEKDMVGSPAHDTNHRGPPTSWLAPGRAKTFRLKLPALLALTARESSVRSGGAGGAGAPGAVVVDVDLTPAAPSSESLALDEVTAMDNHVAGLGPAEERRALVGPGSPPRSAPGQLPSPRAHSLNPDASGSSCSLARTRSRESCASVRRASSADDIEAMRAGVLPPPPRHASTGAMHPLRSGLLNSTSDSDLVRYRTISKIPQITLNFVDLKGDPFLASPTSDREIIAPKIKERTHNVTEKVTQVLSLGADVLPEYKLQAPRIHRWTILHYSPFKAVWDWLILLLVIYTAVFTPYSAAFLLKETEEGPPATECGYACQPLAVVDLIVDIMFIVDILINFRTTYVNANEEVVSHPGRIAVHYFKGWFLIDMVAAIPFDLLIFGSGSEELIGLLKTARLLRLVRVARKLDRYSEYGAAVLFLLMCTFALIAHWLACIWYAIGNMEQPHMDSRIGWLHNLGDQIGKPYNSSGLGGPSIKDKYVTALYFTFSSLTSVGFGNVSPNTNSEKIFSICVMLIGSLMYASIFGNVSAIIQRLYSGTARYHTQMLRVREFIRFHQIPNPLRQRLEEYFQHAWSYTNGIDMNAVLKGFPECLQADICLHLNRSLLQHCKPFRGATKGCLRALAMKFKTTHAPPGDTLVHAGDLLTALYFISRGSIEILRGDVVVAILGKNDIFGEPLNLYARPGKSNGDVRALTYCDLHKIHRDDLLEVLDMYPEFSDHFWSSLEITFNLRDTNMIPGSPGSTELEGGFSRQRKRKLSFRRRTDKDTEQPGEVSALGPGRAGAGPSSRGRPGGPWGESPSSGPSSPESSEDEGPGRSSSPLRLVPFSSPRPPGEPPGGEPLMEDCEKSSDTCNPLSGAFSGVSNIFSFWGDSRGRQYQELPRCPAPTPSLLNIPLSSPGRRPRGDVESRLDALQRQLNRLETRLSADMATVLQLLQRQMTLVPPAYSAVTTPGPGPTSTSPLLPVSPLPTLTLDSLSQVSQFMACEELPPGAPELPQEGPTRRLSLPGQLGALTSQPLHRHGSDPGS

Structure (SMILES) | hERG current change (%, negative = inhibition) at 1uM [%]
CCC1SC2=NC(C)=C(C(=O)OC)C(c3ccc(C(=O)OC)cc3)N2C1=O (centres unmarked) | 8.66
Cc1ccc(C)c(C(=O)COC(=O)CCCC(=O)Nc2cc(C(F)(F)F)ccc2Cl)c1 | 16.3
Cc1ccc(NC(=O)c2cccc(OCc3c(C)noc3C)c2)cc1S(=O)(=O)Nc1ccccc1Cl | 1.63
COc1ccc(CC(=O)NCc2n[nH]c(=S)n2-c2ccccc2)cc1 | 10.4
COc1cc(/C=N/NC(=O)CNC(=O)/C=C/c2ccco2)cc(OC)c1OC | 17.3
Cc1ccc2c(ccc[n+]2CC(=O)c2ccccc2)c1.[Br-] | 2.12
CCN1CCN(Cc2nnnn2C(C)(C)C)CC1 | 8.31
CCCOP(=O)(OCCC)C(Nc1cccc(C(F)(F)F)c1)c1ccc(C)cc1 (centres unmarked) | 21
C=CCN(c1ccccc1)S(=O)(=O)c1cccc(C(=O)NCc2ccncc2)c1 | 9.97
Cc1ccc(S(=O)(=O)c2cc3c(=O)n4ccccc4nc3n(Cc3ccco3)c2=N)cc1 | -0.218
CC1CCN(C(=O)c2ccc(S(=O)(=O)NCc3ccco3)cc2)CC1 | 18.1
COc1cc(OC)cc(C(=O)Nn2cc(C(=O)Nc3ccc(F)cc3F)c3ccccc3c2=O)c1 | 7.39
COC(=O)c1c(NC(=O)C2CC2)sc(C(=O)Nc2ccccc2)c1C | 7.6
COCCNC(=O)CS(=O)(=O)Cc1nc(-c2ccc(C)cc2)oc1C | 1.89
Cc1ccc(CNC(=O)Cn2nnc(C(=O)Nc3cc(C)ccc3C)c2N)cc1 | 10.1
N#CC(c1ccc(Cl)cc1)(c1ncc(C(F)(F)F)cc1Cl)N1CCOCC1 (centres unmarked) | -5.04
OCC1(CCOc2ccccc2)CCN(Cc2ccccc2C(F)(F)F)CC1 | 3.9
CN(c1ccc(OCc2nnc(-c3ccccc3)o2)cc1)S(=O)(=O)c1ccccc1 | 0.492
O=C(O)CCCC(=O)N1CCc2cc(S(=O)(=O)NCc3ccccc3)ccc21 | 9.22
CC1CCN(C(=O)CCCC(=O)N2CCC(C)CC2)CC1 | 2.15
Cc1cc(C)n2nc(C(=O)OCC(=O)N(C)CC(=O)Nc3ccccc3Cl)nc2n1 | 12.9
CCOC(=O)CNC(=O)CSc1nnc(NC(=O)c2ccc3c(c2)OCO3)s1 | 3.77
Cc1ccc(S(=O)(=O)N2CCN(CC(=O)N/N=C/c3ccco3)CC2)cc1 | -3.37

From PMC4336329 (PLoS ONE, 2015)
